Among all 380,000 compounds or so, about 4,000 (1.1%) were called active. Inconclusive results, whose numbers are uncertain, are shown with a selection of clear calls. The call rests on the fitted dose curve; in most records, active means well fitted activation curve with a large enough effect; inconclusive means small, poorly fitted or top-dose-only effect; inactive means no such curve, though single readings can be large or run the other way. Potencies of inconclusive entries are doubtful fits and often do not repeat.
Test: qHTS Assay to Identify Small Molecule Activators of BRCA1 Expression; further: nearly all actives have a fitted effect of over 80% in size
Details: MCF7-BRCA1-FFLuc reporter, luminescence, 48 h; activation: at 46.1 µM (top of the series), scaled: vehicle 0%, 10 µM genistein 100% unless noted
How it was run: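 Luminescence from a BRCA1-driven firefly luciferase in MCF7 cells was the read-out, taken 15 min after substrate addition following 48 h compound exposure at 37 °C. Data were normalized to a 10 microM genistein control and DMSO vehicle.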
Potency means the concentration at half of the fitted maximal effect; tags describe the fitted curve by direction and shape.

Row | SMILES | Potency | activation
1 | CCOc1ccc(-c2nn3c(-c4cc(-c5ccccc5)n[nH]4)nnc3s2)cc1 | inactive | 
2 | CCOC(=O)c1ccc(Nc2ncccc2[N+](=O)[O-])cc1 | inconclusive: 17.8 µM [activator, single point] | 
3 | CN(Cc1ccc(F)cc1)C(=O)CCc1nnc(-c2ccccc2)o1 | active: 14.1 µM | 
4 | Cc1nc2c(-c3ccccc3)c(C)nn2c(N)c1-c1ccccc1 | inconclusive: 1.41 µM [activator, full curve, poor fit] | 
5 | CSc1ccc(/C=N/NC(=O)c2cc(O)cc(O)c2)cc1 | inconclusive: 12.6 µM [activator, partial curve, poor fit] | 
6 | Cc1cccc(OCC2=NS(=O)(=O)c3ccccc3N2)c1 | active: 11.2 µM | 
7 | COc1cccc(C(=O)NNC(=O)c2cccc(F)c2)c1 | inconclusive: 10 µM [activator, partial curve, poor fit] | 
8 | Nc1nc(N2CCN(c3ccccn3)CC2)nc2ccccc12 | inconclusive: 3.55 µM [activator, partial curve, poor fit] | 
9 | CCOc1ccc(C(=O)c2cn(CC(=O)Nc3ccc(OC)cc3)c3cc4c(cc3c2=O)OCO4)cc1 | inactive | 
10 | CCOCC(=O)NC1CCc2cc(OC(=O)COCC)c(OC)c(OC)c2-c2ccc(SC)c(=O)cc21 (stereo unspecified) |  | inconclusive: -86.9% [activator]
11 | CN(C)c1cc[n+](CC(=O)c2ccc(-c3ccccc3)cc2)cc1 | inactive | 
12 | COc1ccc(-c2nc(SCc3ccccc3)n(C(=O)c3ccco3)n2)cc1 | inconclusive: 11.2 µM [activator, partial curve, poor fit] | 
13 | Cc1cccc(NC(=O)CN2C(=O)N/C(=C\c3ccc(-c4cccc(C(=O)O)c4)o3)C2=O)c1 | inconclusive: 20 µM [activator, single point] | 
14 | c1ccc(-c2cnc(CSc3nnc4ccccn34)o2)cc1 | inconclusive: 1 µM [activator, full curve, poor fit] | 
15 | CCOc1ccc(N=NC2C(=O)N(C(N)=S)N=C2C)cc1 (stereo unspecified) | inconclusive: 2.82 µM [activator, full curve, poor fit] | 
16 | N#Cc1ccc(-c2csc(NC(=O)C3CC3)n2)cc1 | inconclusive: 8.91 µM [activator, partial curve, poor fit] | 
17 | CCCCC(=O)Nc1cccc(-c2cn3ccsc3n2)c1 | inconclusive: 15.8 µM [activator, single point] | 
18 | O=C(c1ccc(-c2nc3ccccc3s2)s1)N1CCOCC1 |  | inconclusive: -87.7% [activator]
19 | Cc1ccc2oc(C(=O)Nc3nnc(C)s3)c(C)c2c1 | inconclusive: 2 µM [activator, full curve, poor fit] | 
20 | COc1ccc(Cl)cc1-c1cc(C(=O)NCc2cccc(Cl)c2)[nH]n1 | inactive | 
21 | Cc1cccc(N2CCN(C(=O)c3ccc4nc(N5CCC(C)CC5)sc4c3)CC2)c1C | inconclusive: 3.16 µM [activator, partial curve, poor fit] | 
22 | CS(=O)(=O)N1CCc2cc(C(=O)OCC(=O)c3ccccc3)ccc21 | active: 10 µM | 
23 | CC(=O)Nc1cncc(-c2cccc(N(C)C)c2)n1 | inactive | 

Row | SMILES | Potency | activation
24 | O=C(COc1ccccc1Br)c1ccc(O)cc1O | inconclusive: 17.8 µM [activator, single point] | 
25 | COc1ccc(C2=Nc3ccccc3NC(=O)C2N(C(=O)c2ccnc3ccccc23)c2ccccc2)cc1 (stereo unspecified) | inactive | 
26 | O=C(NCc1ccccn1)C(=O)Nc1ccccc1 | inconclusive: 22.4 µM [activator, single point] | 
27 | CC1CCCC(NC(=O)/C=C/c2c(F)cccc2Cl)C1C (stereo unspecified) | active: 11.2 µM | 
28 | O=C(N/N=C/c1cc2c(cc1Cl)OCO2)c1ccccn1 | inconclusive: 2.51 µM [activator, full curve, poor fit] | 
29 | CN(CCc1cnn(C)c1)C(=O)CCc1nnc(CCCc2ccccc2)o1 | inactive | 
30 | COC(=O)C1C2C=CC3(CN(Cc4ccco4)C(=O)C13)O2 (stereo unspecified) | inactive | 
31 | CCCCNC(=S)NC(=O)c1ccc(Cl)cc1Cl | inconclusive: 35.5 µM [activator, single point] | 
32 | Cc1ccc(C(=O)CSc2nsc(C)c2C#N)cc1 | active: 6.31 µM | 
33 | Cc1ccc(-c2cn3cc([N+](=O)[O-])ccc3n2)cc1 | inconclusive: 2.51 µM [activator, partial curve, poor fit] | 
34 | Cc1ccc(SCCc2ccc(C)nc2)cc1 | inconclusive: 10 µM [activator, partial curve, poor fit] | 
35 | COc1ccc(-c2c(C)nc3c(-c4ccsc4)cnn3c2N)cc1 | inconclusive: 1 µM [activator, full curve, poor fit] | 
36 | COc1cccc(CNS(=O)(=O)c2ccc3[nH]c4c(c3c2)CCCCC4)c1 | inactive | 
37 | O=C1CN(C(=O)COC(=O)c2cccc(OCc3ccccc3)c2)c2ccccc2N1 | inconclusive: 12.6 µM [activator, partial curve, poor fit] | 
38 | C/C(=N/NC(=O)c1cccs1)c1cccs1 | active: 3.55 µM | 
39 | Cc1cc(/C=C2\C(=O)NN(c3ccccc3)C2=O)c(C)n1-c1ccccc1O | active: 10 µM | 
40 | C/C(=C\C(=O)OCCCCCCCCC(=O)O)C[C@@H]1OC[C@H](C[C@@H]2O[C@H]2[C@@H](C)[C@H](C)O)[C@@H](O)[C@H]1O | inactive | 
41 | CCCCNC(=O)Nc1ccc(Br)cn1 | inconclusive: 12.6 µM [activator, partial curve, poor fit] | 
42 | CCc1ccc(/C=N/NC(=O)c2c[nH]c3ccccc23)s1 | inconclusive: 7.08 µM [activator, partial curve, poor fit] | 
43 | O=C(NC(c1ccc(Cl)cc1)c1cnccn1)C1CCN(CCCc2ccccc2)CC1 (stereo unspecified) | inactive | 
44 | Cc1ncsc1C(=O)Nc1nc2c(s1)CCCC2 | inconclusive: 2.82 µM [activator, partial curve, poor fit] | 
45 | Cc1ccc(-c2nn(-c3ccccc3)cc2C=O)o1 | inconclusive: 2.24 µM [activator, partial curve, poor fit] | 
46 | O=C(CC1CCCCC1)NC1CCCC1 | inconclusive: 35.5 µM [activator, single point] | 

Source: PubChem BioAssay AID624202 (National Center for Advancing Translational Sciences (NCATS), 2012)
